Results reported in the supplement of paper PMC9174493.
The list shows a part of the results. Single values of this set are uncertain. Values with irradiation are relative to irradiated vehicle.

Key:
A549-Dual [1] = test: NF-kB reporter (SEAP) activity, viability-corrected, relative to vehicle (fold change vs vehicle); higher = more activation of STING-IRF / NF-kB immune response reporter; conditions: 10 µM
A549-Dual [2] = test: ISRE reporter (Lucia luciferase) activity, viability-corrected, relative to vehicle (fold change vs vehicle); higher = more activation of STING-IRF / NF-kB immune response reporter; conditions: 10 µM
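Throughout, for NF-kB reporter (SEAP) activity, viability-corrected, relative to vehicle: viability correction based on the alamar blue assay, with concentrations leaving 10% survival or less dropped.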

Row | Compound | NF-kB reporter (A549-Dual [1]; irradiation: 8 Gy/4 fr) | NF-kB reporter (A549-Dual [1]; irradiation: none) | ISRE reporter (A549-Dual [2]; irradiation: 8 Gy/4 fr) | ISRE reporter (A549-Dual [2]; irradiation: none)
1 | CNC(=O)CN(CCN(CCN(CC(=O)[O-])CC(=O)NC)CC(=O)[O-])CC(=O)[O-].O.[Gd+3] [Gadodiamide Hydrate] | 0.971 | 0.684 | 0.945 | 0.695
2 | O=CC(O)C(O)C(O)C(O)CO (stereo not drawn) [Dextrose] | 1.16 | 0.595 | 0.952 | 0.563
3 | C[N+](C)(C)CCO.[Cl-] [Choline Chloride] | 0.921 | 0.95 | 0.853 | 0.625
4 | CCCOC(C(=O)OC1CCN(C)CC1)(c1ccccc1)c1ccccc1.Cl [Propiverine hydrochloride] | 1.44 | 0.714 | 0.84 | 0.597
5 | O=C(O)CCCCCCCC(=O)O [Azelaic acid] | 0.984 | 1.39 | 0.925 | 1.08
6 | CCOC(=O)c1ncn2c1CN(C)C(=O)c1cc(F)ccc1-2 [Flumazenil] | 0.638 | 0.738 | 0.655 | 0.757
7 | CCCCC(C)C(=O)O (stereo not drawn) [2-Methylhexanoic acid] | 1.16 | 0.974 | 1.43 | 0.842
8 | CCN(CC)CCOc1ccc2c(c1)C(=O)c1cc(OCCN(CC)CC)ccc1-2.Cl.Cl [Tilorone dihydrochloride] | 1.35 | 3.39 | 1.29 | 6.15
9 | Cc1ccc(S(=O)(=O)O)cc1.NC1CCN(c2nc3c(cc2F)c(=O)c(C(=O)O)cn3-c2ccc(F)cc2F)C1.O (stereo not drawn) [Tosufloxacin p-Toluenesulfonate Hydrate] | 1 | 1 | 1.03 | 0.863
10 | Cc1nccn1CC1CCc2c(c3ccccc3n2C)C1=O.Cl.O.O (stereo not drawn) [Ondansetron Hydrochloride Dihydrate] | 0.624 | 1.19 | 0.591 | 0.618
11 | CN(C/C=C/C#CC(C)(C)C)Cc1cccc2ccccc12 [Terbinafine] | 1.2 | 0.995 | 1.39 | 1.02
12 | O=C(O)Cc1cc(I)c(Oc2ccc(O)c(I)c2)c(I)c1 [Tiratricol] | 0.749 | 1.12 | 0.709 | 1.05
